The source gives no read counts; variants with many changes may rest on few reads.
B1: LINE1-full (parent)
chain: UACGUAGGUGGUUUUCCCCUGAUAGUGCUAAGGGGGCCUGGAAGUUUGGACUGGGCAGAGCUCAACACAGCGUGGCAAAGUGGCUGUGGCUAGACUGCCUCUCUGGAUUCCUCGUCACUCAGCAGGGCAUCUCUGAGAGAAAUGCC

Variants of: B1
Experiment: self-cleavage, relative activity (ratio to wild type); higher = more cleavage; in vitro, sequencing; the parent is a self-cleaving ribozyme

| Variant | self-cleavage |
| --- | --- |
| A6U U52A C111U | 1.02 |
| A6U U81C U85A U91A | 0.28 |
| A6U U87A U115A | 0.17 |
| A6U U96A U134C | 0.05 |
| A6U U96C C98U | 0.29 |
| A6U U100C A138G | 2.3 |
| A6U U102C U132C | 1.37 |
| A6U U132C U134C | 1.1 |
| G7A A22G U47A A77U | 0.47 |
| G7A A24G U108C A141G | 0.35 |
| G7A A30U U87C | 0.17 |
| G7A A31U G41A A59C U112C | 0.84 |
| G7A A42G A92U A142G | 0.44 |
| G7A A57G A69G | 0.4 |
| G7A A65G U102C | 0 |
| G7A A65U G122U A140U | 0.2 |
| G7A A117G A129G | 1.06 |
| G7A C19U U119A | 1.36 |
| G7A G36A A117G | 1.2 |
| G7A G49A A50G A57C C63A | 0.09 |
| G7A G53A A124G U132C | 0.51 |
| G7A G74A A77G | 1.23 |
| G7A U9C G89U | 0.08 |
| G7A U12C A42U | 1.1 |

| Variant | self-cleavage |
| --- | --- |
| G7A U12G U45A A65G A117U | 0.23 |
| G7A U12G U46A A79G | 0.51 |
| G7A U13C U104C | 0.73 |
| G7A U14A A42G A129U | 0.79 |
| G7A U14C A94G | 0.31 |
| G7A U14C C99U | 0.58 |
| G7A U14C U20A U26C A57G U81C | 0 |
| G7A U15C U62C A92C | 0 |
| G7A U20A A141G | 0.83 |
| G7A U26C A138G | 1.23 |
| G7A U39A A69U A138G | 0.02 |
| G7A U39C A64U A107G | 0.22 |
| G7A U46C A69G A78G U87A | 0.1 |
| G7A U46C A78G | 1.17 |
| G7A U47A G48A U73C U134A | 0.89 |
| G7A U85C U87C | 0 |
| G7A U96A C146U | 0.02 |
| G7A U115C U143C | 2.19 |
| G7C A22G G40A A129G A141G | 1.46 |
| G7C A57U A78G C98A A117G | 0.07 |
| G7C A64U U73C | 1.53 |
| G7C A67U A117G | 0.45 |
| G7C A92G A142G | 0.21 |
| G7C C19G A78G A121U | 1.2 |

| Variant | self-cleavage |
| --- | --- |
| G7C U26C A107G | 0.67 |
| G7U A67U U119C | 0.14 |
| G7U U9A U14C C116A | 0.33 |
| G7U U9C U73C | 2.13 |
| G7U U13A U39C A69G C90A G122A | 0.07 |
| G7U U14C U85C | 0.32 |
| G7U U15C U102C C113U | 1.47 |
| G7U U20A G83A U87C C113A A129G | 0.1 |
| G7U U26C U45C U102C C118U | 1.67 |
| G7U U26G U39C U47A G54A U91C A138G | 0.17 |
| G7U U39C A78G A117G | 0.42 |
| G7U U47C A69G A77U | 0.84 |
| G7U U109A U119C U134G A141G | 2 |
| G8A A42G A79G A124G | 1.06 |
| G8A A42U U52A | 0.96 |
| G8A A77U U96A A136G | 0.13 |
| G8A A78G U104C U132C | 1.65 |
| G8A A78G U119C | 1.38 |
| G8A C19U U46A A57U | 0.12 |
| G8A C19U U52C | 0.89 |
| G8A G27A G72A A92G C110U | 0.08 |
| G8A G35C A138G | 1.07 |
| G8A G36C U81A U91A U115C G122A | 0.77 |
| G8A U9C U45C G137A | 0.84 |

| Variant | self-cleavage |
| --- | --- |
| G8A U12A U20C U47G U100A A142G | 0.8 |
| G8A U13A A42G A129G | 0.4 |
| G8A U20C A107G | 1.04 |
| G8A U23C U108C U134A | 1.65 |
| G8A U29A A124G | 0.86 |
| G8A U29A A138G | 1.4 |
| G8A U39A A69U U102A G126U A129U U134A | 0.04 |
| G8A U46A A78G | 1.25 |
| G8A U46C G122U | 1.37 |
| G8A U46C U52G U62A U87C U96A | 0 |
| G8A U47A G72U G82A A94G | 0.26 |
| G8A U85C U132A | 1.19 |
| G8C A24G A65G | 0.36 |
| G8C A92U A107G | 1.25 |
| G8C A117U A129G | 1.71 |
| G8C C17U U26G A78G | 0.89 |
| G8C C71A U85A A117U | 0.06 |
| G8C G36C U108A U132C A138U U143C | 2.35 |
| G8C U13C U20C U39C | 1.8 |
| G8C U14C C28A | 0.6 |
| G8C U47C U119C A142G | 1.23 |
| G8U A43G C76U U96A | 0.14 |
| G8U A57G U134C | 1.19 |
| G8U A69G U109C | 0 |

| Variant | self-cleavage |
| --- | --- |
| G8U G72U U96A A142G | 0.11 |
| G8U U29C C110U | 0.8 |
| G8U U45C U73A | 1.31 |
| U9A A22G C71U | 0.8 |
| U9A A22G G60A | 0.14 |
| U9A A22G U73C U85A U130C | 0.6 |
| U9A A22G U143C | 0.46 |
| U9A A24G A30G | 1.35 |
| U9A A24U G35A | 1.3 |
| U9A A24U G97A | 0.23 |
| U9A A30G U132A | 0.75 |
| U9A A31U G49A U134C A140G U143C | 0.69 |
| U9A A42G G54A A69U G82A A141G | 0.04 |
| U9A A42U U91C A138G | 0.33 |
| U9A A43G A50U G122U U132C | 0.07 |
| U9A A43G A141G | 1.15 |
| U9A A57G A67G | 0.65 |
| U9A A57G U91G A140G U143C | 0 |
| U9A A59G U104C | 0.25 |
| U9A A59G U115A G122U | 0.15 |
| U9A A59U U85C | 0.46 |
| U9A A64G C95U | 0.06 |
| U9A A64G U81C | 0.2 |
| U9A A64U U91C U102C | 0.39 |

| Variant | self-cleavage |
| --- | --- |
| U9A A64U U143A | 0.53 |
| U9A A67G A142G | 0.22 |
| U9A A67G U85C U100C | 0 |
| U9A A67G U96G | 0.34 |
| U9A A69G U115C | 0.74 |
| U9A A69G U119C A140G | 0 |
| U9A A69G U143A | 0.38 |
| U9A A78G U81C U96A | 0.09 |
| U9A A78G U91A | 0.48 |
| U9A A79G U100G A124U | 0 |
| U9A A79G U130C | 1.4 |
| U9A A121C A140G | 0 |
| U9A A129U A142G | 2.3 |
| U9A A140G A141U | 1.12 |
| U9A C16U A22G G27A U29C A92U A117G A138G | 2.63 |
| U9A C16U G35U A117G | 1.12 |
| U9A C16U U45C | 0.39 |
| U9A C18U U20A A24G U109C U112C A129G | 0 |
| U9A C19A U29C A59G A77U | 0.24 |
| U9A C37U U109C A129U | 1.32 |
| U9A C51U U104C A142G | 1.47 |
| U9A G27A A59U | 0.74 |
| U9A G32C U109C G122U | 0.97 |
| U9A G33U U39C A142G | 1.15 |

| Variant | self-cleavage |
| --- | --- |
| U9A G34A U108C | 1.4 |
| U9A G36C A129G | 1.25 |
| U9A G36U U115A U143A | 1.39 |
| U9A G53A A78G C118U | 1.46 |
| U9A G53U A78U | 1.53 |
| U9A G88A U96C | 0.06 |
| U9A G89A A129G A138G | 0.07 |
| U9A G97A A117G | 0.19 |
| U9A U12C U14A | 0.59 |
| U9A U12C U23C | 1.23 |
| U9A U12C U23C U46A | 2.12 |
| U9A U12C U45A A94U A142G | 0.84 |
| U9A U12C U100A A141U | 0.78 |
| U9A U12C U104A | 0.84 |
| U9A U12C U143A | 0.6 |
| U9A U12G A67U G97A | 0 |
| U9A U13C A43U A50U U108C | 0.99 |
| U9A U13C A50G A141G | 1.53 |
| U9A U13C A69G | 0.6 |
| U9A U13C A129G | 1.6 |
| U9A U13C U39A A92U U104C | 0.44 |
| U9A U13C U96C | 0.41 |
| U9A U14C A121G | 0.77 |
